Source: PubChem BioAssay AID624296 (National Center for Advancing Translational Sciences (NCATS), 2012)
Several values for one entry are separate records, joined by “and”; a condition that tells them apart may be missing. Equal entries are not always repeated. About 9,900 (2.8%) of roughly 350,000 compounds were called active. Inconclusive means that the source gave no clear call. Such entries were picked first, then a sample of the others. The call rests on the fitted dose curve; in most records, active means well fitted activation curve with a large enough effect; inconclusive means small, poorly fitted or top-dose-only effect; inactive means no such curve, though single readings can be large or run the other way. Potencies of inconclusive entries are left out as doubtful fits.

Experiment: A quantitative high throughput screen for small molecules that induce DNA re-replication in MCF 10a normal breast cells. Further: nearly all actives have a fitted effect of over 50% in size. On activity, positive = re-replication: % of control where 0% means no effect.
Details: MCF 10A DNA re-replication, Hoechst nuclear intensity, 48 h; activity, positive = re-replication: at 46.1 µM (top of the series)
Potency means the concentration at half of the fitted maximal effect; tags describe the fitted curve by direction and shape.

SMILES | Potency | activity, positive = re-replication
C=CCNCCCCOc1ccc(Br)cc1C | active: 25.9 µM | –
CCOc1ccc(CCN2C(=S)N([C@@H](Cc3ccc(O)cc3)CN3CCCC3CN3C(=S)NC[C@@H]3Cc3ccc(O)cc3)C[C@@H]2CC(C)C)cc1 (stereo not given in full) | inconclusive [activator, partial curve, poor fit] | –
CC(C)(O)c1ccccc1CC[C@H](SCC1(CC(=O)O)CC1)c1cccc(/C=C/c2ccc3ccc(Cl)cc3n2)c1 | inconclusive [activator, full curve, poor fit] | –
CCCCn1c(N)c(N(CC(C)C)C(=O)CSc2nnc(C)n2-c2ccccc2)c(=O)[nH]c1=O | – | inactive: -1.98%
O=C(COC(=O)CNC(=O)c1ccc([N+](=O)[O-])o1)Nc1ncc(Cl)cc1Cl | inconclusive [activator, single point] | –
CCN(CC)CCN1C(=O)/C(=C\c2ccc(Cl)c([N+](=O)[O-])c2)SC1=Nc1ccc(OC)cc1 | inconclusive [activator, full curve, poor fit] | –
CC1(C)C2CCC1(C)C(Nc1ccccc1)C2 (stereo not given) | inconclusive [activator, single point] | –
O=C(c1cc(Br)c(Br)s1)N1CCN(C/C=C/c2ccccc2)CC1 | inconclusive [activator, partial curve] | –
CCC(C)CCN1C(N(C)C)=NC[C@@H]1Cc1ccccc1 (stereo not given in full) | inconclusive [activator, partial curve, poor fit] | –
CCOc1ccc(OCC)c(NC(=O)CN2CCN(c3cccc(C)c3)C(C)C2)c1 (stereo not given) | active: 14.6 µM | –
COc1ccccc1CN(C)CC(=O)Nc1cccc(S(=O)(=O)N2CCCC2)c1 | inconclusive [activator, partial curve, poor fit] | –
C=CCN1C(=O)N/C(=C/c2ccc(N3CCOCC3)o2)C1=O | active: 5.8 µM | –
N#Cc1cc([N+](=O)[O-])cnc1N(CCO)CCO | – | inactive: -1.3%
Cc1ccc(-c2nn(C)c(=O)c3ccccc23)cc1S(=O)(=O)NCCN(C)C | inconclusive [activator, single point] | –
CCS(=O)(=O)N1CCN(C(=O)c2ccco2)CC1 | active: 8.2 µM | –
COc1ccc(OC)c(C(=O)CSc2nnc(Cc3cccs3)n2CCc2ccccc2)c1 | inconclusive [activator, single point] | –
NC(=O)C[C@@H]1NC(=O)CNC(=O)c2cc([N+](=O)[O-])cc(I)c2NCCC(C(N)=O)NC1=O (stereo not given in full) | inconclusive [activator, full curve, poor fit] | –
CCc1cccc(C)c1NC(=O)C1CCCN1C(=O)NCc1ccccc1 (stereo not given) | – | inactive: -5.49%
O=C(Cc1ccccc1)NCC(=O)OCC(=O)c1ccc(Cl)cc1 | – | inactive: -16.6%
C/C(=N\Nc1cc(Cl)nc(C)n1)c1ccccc1 | – | inactive: 5.83%
O=C(Cc1n[nH]c(=O)c2ccccc12)OCC(=O)N(Cc1ccccc1)Cc1ccccc1 | inconclusive [activator, single point] | –
Nc1ccc(S(=O)(=O)N2CCOCCOCCOCCOCCOCC2)cc1 | – | inactive: -1.49%

SMILES | Potency | activity, positive = re-replication
CCCOc1ccc(N2C(=O)C3ON(c4ccccc4)C(c4ccc(O)c(OC)c4)C3C2=O)cc1 (stereo not given) | inconclusive [activator, partial curve, poor fit] | –
CN(C)S(=O)(=O)c1ccc(S(=O)(=O)NC2CCOC(C)(C)C2)cc1 (stereo not given) | inconclusive [activator, partial curve, poor fit] | –
Cc1cc2cc(CCNC(=O)C(=O)c3c[nH]c4ccccc34)c(=O)[nH]c2cc1C | inconclusive [activator, partial curve, poor fit] | –
CCCNS(=O)(=O)c1ccc(CCC(=O)Nc2cc(Cl)ccc2Oc2ccccc2)cc1 | active: 8.2 µM | –
CCOC(=O)c1ccc(Nc2cc(C)nc(C)c2C(=O)OCC)cc1 | inconclusive [activator, partial curve, poor fit] | –
O=C(CSc1n[nH]c(=O)n1C1CC1)Nc1cc(Cl)ccc1Oc1ccccc1 | inconclusive [activator, full curve, poor fit] | –
COc1ccc2[nH]c(=O)c(CN(Cc3cccnc3)S(=O)(=O)c3ccccc3F)cc2c1 | inconclusive [activator, partial curve] | –
C=CCn1c(CNS(=O)(=O)c2ccc(Br)cc2)n[nH]c1=S | – | inactive: 1.55%
Cc1nc(C)c(-c2csc(Nc3ccc(F)cc3)n2)s1 | inconclusive [activator, partial curve, poor fit] | –
CCN(C[C@H]1N[C@@](Cc2ccccc2)(C(=O)OC)[C@H]2C(=O)N(C)C(=O)[C@@H]12)C(=O)Nc1ccc(C)cc1 | inconclusive [activator, full curve, poor fit] | –
Cc1ccc(NC(=O)CC2C(=O)N(Cc3ccccc3)C(=S)N2NC(=O)c2ccccc2)c(C)c1 (stereo not given) | inconclusive [activator, partial curve, poor fit] | –
COc1cc(C)c(C(C)C)cc1S(=O)(=O)NCCCn1ccnc1 | inconclusive [activator, single point] | –
CC(C)CC(=O)Nc1cc2c3c(c1)CCN3C(=O)CC2 | inconclusive [activator, single point] | –
CN(C)C(CNC1CC(C)(C)NC(C)(C)C1)c1cccc(F)c1 (stereo not given) | inconclusive [activator, partial curve] | –
CC(=O)NCCc1ccc(S(=O)(=O)Nc2cccnc2)cc1 | inconclusive [activator, partial curve, poor fit] | –
COc1ccc(NC(=O)CC2C(=O)N(c3ccc(Cl)cc3)C(=S)N2CCc2ccccn2)cc1 (stereo not given) | inconclusive [activator, single point] | –
O=C(Nc1ccc(Cl)cc1)c1nc[nH]c1C(=O)N1CCc2ccccc2C1 | inconclusive [activator, full curve] | –
CCCCNC(=O)c1cccc2c(=O)c(C)c(-c3ccccc3)oc12 | – | inactive: 10.9%
Cc1ccc2nc(-c3cccnc3)cc(C(=O)N3CCN(c4ccc([N+](=O)[O-])cc4)CC3)c2c1 | – | inactive: 14.3%
O=[N+]([O-])c1cc(S(=O)(=O)Nc2cccc(C(F)(F)F)c2)ccc1-n1nnc2ccccc21 | inconclusive [activator, full curve] | –
O=C1c2cccc3c(N4CCCCC4)ccc(c23)C(=O)N1c1ccc(O)cc1 | active: 5.8 µM | –
COc1ccccc1N1CCN(C(=O)c2sc3ncnc(N4CCN(c5ccccn5)CC4)c3c2C)CC1 | active: 18.4 µM | –

SMILES | Potency | activity, positive = re-replication
COc1ccc(S(=O)(=O)N2CCN(CCC(=O)Nc3ccccc3F)CC2)cc1 | inconclusive [activator, partial curve, poor fit] | –
O=C(Nc1ccc2nc(-c3ccc4nc[nH]c4c3)[nH]c2c1)c1cccs1 | inconclusive [activator, single point] | –
CCCSc1ncc(Cl)c(C(=O)Nc2ccc(S(=O)(=O)Nc3ncccn3)cc2)n1 | – | inactive: -1.4%
CN(C)c1ccc(/C=C/c2ccc3ccccc3[n+]2C)cc1 | inconclusive [activator, single point] | –
COc1cccc(NC(=O)Cn2c3ccc(F)cc3c3nc4n(c(=O)c32)CCS4)c1 | inconclusive [activator, single point] | –
Cc1cccc(C(=O)N=c2c(C#N)cc3c(=O)n4cccc(C)c4nc3n2Cc2ccco2)c1 | active: 13 µM and active: 18.4 µM | –
COc1ccc(-c2nn(-c3ccccc3)cc2CN(C)CCn2ccnc2C)c(F)c1 | – | inactive: 2.24%
CCCCNC(=S)NNC(=O)c1csc2c1CCC(C)C2 (stereo not given) | – | inactive: 5.05%
COC(=O)Nc1ccc(S(=O)(=O)N2CCCCC2)cc1 | – | inactive: 6.88%
Cc1ccc(NC(=O)c2ncn(CCCN(CCCn3cnc(C(=O)Nc4ccc(C)c(C)c4)n3)Cc3ccc4[nH]ccc4c3)n2)cc1C | inconclusive [activator, single point] | –
CCN(CC)C(=O)C1=C(C)NC(=S)NC1c1ccc(C)s1 (stereo not given) | inconclusive [activator, single point] | –
CC(OC(=O)c1cc(Br)ccc1O)C(=O)NC1(C#N)CCCCC1 (stereo not given) | – | inactive: 9.76%
CCOc1c(C)cc(S(=O)(=O)NCc2cccnc2)c(C)c1C | inconclusive [activator, single point] | –
C1=C2C[N+]3(CCCC3)CC2Cc2ccc3ccccc3c21 (stereo not given) | inconclusive [activator, single point] | –
O=C(Nc1ccc(NC(=O)c2ccco2)nc1)c1cccc(F)c1 | – | inactive: -3.14%
COc1ccccc1NCCC(=O)OCC(=O)NCc1ccco1 | – | inactive: 5.14%
Cc1ccc(C(=O)Nc2ccc(S(=O)(=O)N3CCOCC3)cc2)cc1C | inconclusive [activator, single point] | –
Cc1nn2c(c1-c1ccccc1)N=C(c1ccco1)CC2c1ccccc1 (stereo not given) | inconclusive [activator, single point] | –
COc1ccc(NCC(O)COc2ccc(C(C)(C)C)cc2)cc1 (stereo not given) | inconclusive [activator, single point] | –
CCOc1ccccc1/C=N/NC(=O)c1nnn(-c2nonc2N)c1CN1CCCCCC1 | inconclusive [activator, single point] | –
Nc1ccccc1C(=O)/C=C/c1ccc2c(c1)OCO2 | inconclusive [activator, partial curve, poor fit] | –
